# PubChem BioAssay AID485367 (National Center for Advancing Translational Sciences (NCATS), 2010)
# Among all 330,000 compounds or so, about 560 (0.17%) were called active. This list was built around the results that the source calls inconclusive (neither active nor inactive); the mix of calls is not that of the screen. The call rests on the fitted dose curve; in most records, active means well fitted inhibition curve with a large enough effect; inconclusive means small, poorly fitted or top-dose-only effect, or effect the other way; inactive means flat fitted curve, though single readings scatter. Potencies of inconclusive entries are left out as doubtful fits.
# Target: ATP-dependent 6-phosphofructokinase (Trypanosoma brucei brucei) (UniProt O15648)
# Assay: qHTS Assay to Find Inhibitors of T. brucei phosphofructokinase; further: nearly all actives have a fitted effect of over 60% in size
# Settings: T. brucei PFK, ADP-Glo luminescence; series mostly up to 57.5 µM
# Summary of the method: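 Activity is normalized to no-enzyme wells (full inhibition) and 1.25 nM enzyme wells (no inhibition). Reaction: 0.5 mM F6P, 0.1 mM ATP, 45 min RT, ADP-Glo luminescence; concentration-response curves fitted and classed by quality.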
# Potency means the concentration at half of the fitted maximal effect; tags describe the fitted curve by direction and shape.
# Chain of UniProt O15648 (O15648 whole entry, looked up): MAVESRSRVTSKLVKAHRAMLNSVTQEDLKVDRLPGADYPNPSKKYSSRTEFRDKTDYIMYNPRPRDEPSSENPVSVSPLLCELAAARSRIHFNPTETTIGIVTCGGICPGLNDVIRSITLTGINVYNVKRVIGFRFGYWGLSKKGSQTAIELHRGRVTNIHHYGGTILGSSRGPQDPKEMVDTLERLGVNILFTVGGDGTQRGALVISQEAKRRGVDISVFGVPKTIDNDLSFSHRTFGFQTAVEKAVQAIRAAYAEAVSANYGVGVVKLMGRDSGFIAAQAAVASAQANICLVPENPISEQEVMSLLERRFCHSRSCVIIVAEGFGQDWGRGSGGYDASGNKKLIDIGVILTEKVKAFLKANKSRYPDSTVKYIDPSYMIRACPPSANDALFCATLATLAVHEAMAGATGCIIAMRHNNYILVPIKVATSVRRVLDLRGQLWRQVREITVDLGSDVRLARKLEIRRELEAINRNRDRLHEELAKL
row,Structure (SMILES),Potency
1,COc1ccccc1C(=O)NC(=O)COC(=O)Cn1[nH]c(=O)c2ccccc2c1=O,inactive
2,O=C(Nc1ccon1)Nc1ccc(Cl)cc1Cl,"inconclusive [falling, single point]"
3,CC(C)NS(=O)(=O)c1ccc(CCC(=O)NCc2ccco2)cc1,"inconclusive [falling, single point]"
4,Cc1ccc(NC(=O)COc2coc(CN3CCc4ccccc43)cc2=O)cc1Cl,"inconclusive [falling, single point]"
5,Cc1cc(C)nc(NS(=O)(=O)c2ccc(NC(=O)CCC3COc4ccccc4O3)cc2)n1 (configuration not stated),"inconclusive [falling, single point]"
6,O=C(N/N=C/c1cc(Br)ccc1O)C(=O)Nc1ccccc1OC(F)(F)C(F)F,inactive
7,Nc1c(C(=O)NCc2cccnc2)sc(=S)n1-c1ccccc1,"inconclusive [falling, single point]"
8,CC(C)(C)OC(=O)C[C@@H]1C/C=C\C[C@@H](CC(=O)NCCO)C(=O)NC[C@H](c2ccccc2)OC1=O,"inconclusive [falling, single point]"
9,COc1ccc(C(=O)COC(=O)c2ccc(Cl)nc2)c(OC)c1,"inconclusive [falling, single point]"
10,O=C(CCS(=O)(=O)c1ccc(Br)cc1)NCc1ccco1,active: 16.9 µM
11,O=C(Nc1cc(Cl)cc(Cl)c1)c1coc(=O)c(Br)c1,"inconclusive [falling, single point]"
12,Cc1cccc2nc(Cn3c(=O)n(CCCC(=O)NCc4ccco4)c(=O)c4ccccc43)cc(=O)n12,"inconclusive [falling, single point]"
13,CC(NCC(O)COC1CCC(C(C)(C)C)CC1)c1ccccc1 (configuration not stated),inactive
14,CC1(OC(=O)CCc2ccccc2)C(=O)C=C2C=C(c3ccc(C#N)cc3)N(Cc3ccco3)C=C2C1=O (configuration not stated),inactive
15,O=C(COc1ccc(Cl)cc1)NCc1nnc(SCC(=O)c2ccccc2)o1,"inconclusive [falling, partial curve]"
16,CCCCOCCOCCOCCCC,"inconclusive [falling, single point]"
17,COC(=O)c1ccc2c(c1)SC1=C(CCCC1=O)N2,"inconclusive [falling, single point]"
18,Cc1ccc(-c2csc(NC(=O)C3CSC4(C)CCC(=O)N34)n2)cc1 (configuration not stated),"inconclusive [falling, single point]"
19,CC(C)(C)c1nnc(NC(=O)C2c3ccccc3Oc3ccccc32)s1,"inconclusive [falling, full curve]"
20,Cc1nc2ccccc2n1CC(=O)c1ccc(O)c(O)c1,active: 30.1 µM
21,O=C(/C=C/c1ccco1)Nc1cccc(NC(=O)/C=C/c2ccco2)n1,"inconclusive [falling, single point]"
22,COc1ccc(OC)c(-n2c(-c3ccc(C)cc3)n[nH]c2=S)c1,"inconclusive [falling, partial curve]"
23,C[C@](N)(Cc1ccc(O)c(O)c1)C(=O)O,"inconclusive [falling, full curve]"

row,Structure (SMILES),Potency
1,CN(CCC#N)C(=O)COC(=O)c1c2c(nc3ccccc13)/C(=C/c1ccco1)CC2,"inconclusive [falling, full curve, poor fit]"
2,c1cc(-c2nsc(-c3ccncc3)n2)ccn1,"inconclusive [falling, single point]"
3,N#Cc1ccc(-c2ccccc2)nc1SCC(=O)c1cc2ccccc2oc1=O,inactive
4,CCCOC(=O)c1c(NC(=O)C2CCCO2)sc(C(=O)OC)c1C (configuration not stated),"inconclusive [falling, single point]"
5,CS(=O)(=O)N1CCCC(C(=O)N2CCN(c3cccc(Cl)c3)CC2)C1 (configuration not stated),"inconclusive [falling, partial curve]"
6,CCOC(=O)c1c(NC(=O)C2C3C=CC(C3)C2(C)C(=O)O)sc2c1CCCC2 (configuration not stated),"inconclusive [falling, partial curve]"
7,Cc1nnc(-c2cccc(Br)c2)c2cn(-c3cccc(Br)c3)nc12,"inconclusive [falling, single point]"
8,Clc1ccc(N=c2ssnc2Cl)cc1,"inconclusive [falling, single point]"
9,COc1ccc(S(=O)(=O)/N=C2/NC(=O)/C(=C\c3ccco3)S2)cc1,"inconclusive [activator, single point]"
10,O=C(OCC(=O)N1CCN(C(=O)COC(=O)c2ccc(O)cc2O)CC1)c1ccc(O)cc1O,"inconclusive [falling, single point]"
11,O=C(N/N=C\c1ccc([N+](=O)[O-])o1)C1COc2ccccc2O1 (configuration not stated),"inconclusive [falling, single point]"
12,CCc1cc2c(=O)c(-c3nc4ccccc4n3C)coc2c(CN2CCOCC2)c1O,"inconclusive [falling, single point]"
13,O=C(Nc1ccccc1C(=O)O)c1ccc(NC(=O)C2CCCCC2)cc1,inactive
14,COc1ccccc1NC(c1cccnc1)c1ccc2cccnc2c1O (configuration not stated),"inconclusive [falling, single point]"
15,CCn1cc(S(=O)(=O)CC(=O)Nc2cc(C)ccc2C)c2ccccc21,inactive
16,CC(=O)Nc1ccc(NC(=O)CSc2nc(=O)n(Cc3ccncc3)c3c2CCC3)cc1,"inconclusive [falling, single point]"
17,CCCOc1ccc(/C(O)=C2/C(=O)C(=O)N(CCCN3CCOCC3)C2c2ccncc2)cc1 (configuration not stated),"inconclusive [falling, full curve]"
18,CCC1SC(CC)C(=O)N(CC(=O)Nc2ccc3c(c2)OCO3)C1=O (configuration not stated),inactive
19,NCCNc1ccc([N+](=O)[O-])cc1,"inconclusive [falling, partial curve]"
20,O=C(N/N=C/c1c[nH]c2ccccc12)c1cc(Br)ccc1O,"inconclusive [activator, single point]"
21,O=C(O)COc1ccc(/C=N/NC(=O)c2ccc(-c3csc(Nc4ccc(Cl)cc4)n3)cc2)cc1,"inconclusive [falling, full curve]"
22,COc1ccc(NC(=O)CN(C)C(=O)c2cc(-c3ccccc3)nc3ccccc23)cc1,inactive
23,Clc1ccc(C[n+]2cc(-c3ccccc3)n3c2CCC3)cc1Cl,"inconclusive [falling, partial curve]"

row,Structure (SMILES),Potency
1,CCC(=O)OCCNc1cc(Sc2nc3ccccc3[nH]2)c2nonc2c1[N+](=O)[O-],"inconclusive [falling, partial curve]"
2,Cc1nonc1C1CCCN1C(=O)c1cc(COc2ccc(F)cc2Cl)on1 (configuration not stated),inactive
3,CN1CCN(CCCNC(=O)c2ccc(/C=C3\Oc4ccccc4N(Cc4ccc(Cl)cc4)C3=O)cc2)CC1,"inconclusive [activator, partial curve]"
4,COc1cc(Cl)c(C)cc1NC(=O)c1ccccc1NC(=O)CN1CCOCC1,"inconclusive [falling, single point]"
5,Cc1cc(N2CCN(C(=O)Nc3ccc(F)cc3F)CC2)c2ccccc2n1,"inconclusive [falling, single point]"
6,O=C(NCc1ccc(Cl)cc1)NCC(F)(F)F,"inconclusive [falling, single point]"
7,OCCNCCOc1ccc(Cl)c(Cl)c1,"inconclusive [falling, partial curve]"
8,O=C1CCCC(=O)N1c1ccc(F)cc1,inactive
9,O=C(Cc1cccc(C(F)(F)F)c1)Nc1ccc(S(=O)(=O)N2CCCC2)cc1,"inconclusive [falling, partial curve]"
10,c1ccc(-n2cc(CN3CCCC3)c(-c3ccc4c(c3)OCO4)n2)cc1,inactive
11,OCCN1CCN(C(=S)c2ccc(Br)cc2)CC1,"inconclusive [falling, single point]"
12,COC(=O)c1c(NC(=O)c2ccoc2C)sc2c1CCC2,"inconclusive [falling, single point]"
13,N#C/C(=C\Nc1ccc(F)c(Cl)c1)C(=O)C1CC1,"inconclusive [falling, partial curve]"
14,COc1ccc(S(=O)(=O)N2CCCCCC2)cc1C(=O)N(C)Cc1cccc(OC)c1OC,"inconclusive [falling, single point]"
15,Cc1cc(C(F)F)nn1CC(=O)NC1C(=O)N2C(C(=O)O)=C(CSc3nnnn3C)CSC12 (configuration not stated),"inconclusive [falling, single point]"
16,CC(=O)c1ccc(S(=O)(=O)Nc2ccc(C(=O)NCCCn3ccnc3)cc2)cc1,"inconclusive [falling, single point]"
17,O=C(Nc1ccc2c(c1)C(=O)NC2=O)c1cc(Cl)ccc1Cl,"inconclusive [falling, partial curve]"
18,Cc1ccsc1C1C(C#N)=C(N)OC2=C1C(=O)CC(C)C2 (configuration not stated),"inconclusive [activator, partial curve]"
19,NS(=O)(=O)c1ccc(CNC(=S)Nc2ccc(Cl)c(Cl)c2)cc1,"inconclusive [falling, partial curve]"
20,CC(=O)Oc1ccc(C(=O)Nc2cccc(C(=O)c3ccc(C)c(C)c3)c2)cc1,inactive
21,Cc1cc(C)cc(-n2nnc(C(=O)NCc3ccc(Cl)cc3)c2N)c1,"inconclusive [falling, full curve]"
